{"source": "the supplement of paper PMC3334620", "note": "Whole data set: some 33,000 sequences, median “E-score (-0.5 to 0.5)” near -0.054, cut for the highest 2% near 0.39. This is one part of the list.", "data": [{"target": "Ylr278c (UniProt Q05854)", "test": "PBM E-score (8-mer binding enrichment) (E-score (-0.5 to 0.5)); higher = stronger / more preferred TF binding; most listed sequences are background and not binding sites", "conditions": "protein concentration: 200 nM; construct: GST-DNA-binding domain", "method_in_brief": "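The E-score, a modified Wilcoxon-Mann-Whitney statistic, was computed by the Universal PBM Analysis Suite for every ungapped eight-base word pooled with its reverse complement. Scans behind it were normalised with masliner after bound GST-tagged yeast transcription factors were detected with fluorescent anti-GST. The proteins, at about 100-200 nM, had been applied to universal all-10-mer Agilent arrays made double-stranded by primer extension.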", "values": [{"sequence": "AAGAATTG", "PBM E-score": -0.0343}, {"sequence": "GATGCGCC", "PBM E-score": 0.0693}, {"sequence": "GACACACC", "PBM E-score": 0.0326}, {"sequence": "TGAGCCAA", "PBM E-score": -0.258}, {"sequence": "CTATGCAC", "PBM E-score": -0.205}, {"sequence": "ATGGGAGC", "PBM E-score": 0.0653}, {"sequence": "TAGCCATA", "PBM E-score": -0.329}, {"sequence": "ACGCTAGC", "PBM E-score": -0.171}, {"sequence": "AGAATTAC", "PBM E-score": 0.094}, {"sequence": "GCTAGAAA", "PBM E-score": 0.0266}, {"sequence": "CTCACACA", "PBM E-score": -0.195}, {"sequence": "GAATGTCA", "PBM E-score": -0.0849}, {"sequence": "CCAGACCA", "PBM E-score": -0.252}, {"sequence": "TGACACAA", "PBM E-score": -0.0829}, {"sequence": "AATGTGTC", "PBM E-score": -0.0466}, {"sequence": "CCATCCCA", "PBM E-score": -0.129}, {"sequence": "CGTTCTCA", "PBM E-score": -0.234}, {"sequence": "CCCTTAGA", "PBM E-score": -0.393}, {"sequence": "CAACCATC", "PBM E-score": -0.0633}, {"sequence": "GGTTCGAC", "PBM E-score": -0.153}, {"sequence": "ACTACGCA", "PBM E-score": -0.127}, {"sequence": "CAGAGAGC", "PBM E-score": -0.184}, {"sequence": "AACGGGCC", "PBM E-score": 0.00373}, {"sequence": "AGTGCATA", "PBM E-score": -0.184}, {"sequence": "ATCTCCCC", "PBM E-score": -0.00596}, {"sequence": "ACAAATTA", "PBM E-score": 0.0532}, {"sequence": "ATGGGTCA", "PBM E-score": -0.232}, {"sequence": "CCCGACAC", "PBM E-score": 0.252}, {"sequence": "CAAGTTGG", "PBM E-score": -0.036}, {"sequence": "ATCCCATA", "PBM E-score": 0.0702}, {"sequence": "ATACTGCG", "PBM E-score": 0.0328}, {"sequence": "AGTCACAA", "PBM E-score": -0.201}, {"sequence": "CATGGTCC", "PBM E-score": -0.0406}, {"sequence": "CATGCGGC", "PBM E-score": -0.00255}, {"sequence": "ATAGCAAA", "PBM E-score": -0.221}, {"sequence": "GTATGAGA", "PBM E-score": 0.0106}, {"sequence": "GCAAGCCC", "PBM E-score": 0.0968}, {"sequence": "AAGCGCGG", "PBM E-score": 0.155}, {"sequence": "ATGAGGAA", "PBM E-score": 0.0172}, {"sequence": "CCAAGCGA", "PBM E-score": -0.245}, {"sequence": "CCTTAATA", "PBM E-score": -0.107}, {"sequence": "GATGCATA", "PBM E-score": -0.0948}, {"sequence": "ACTGGTGA", "PBM E-score": -0.282}, {"sequence": "CCCCCCCA", "PBM E-score": -0.309}, {"sequence": "CACTCTCC", "PBM E-score": 0.183}, {"sequence": "CAAGATAG", "PBM E-score": -0.213}, {"sequence": "GGTACAGA", "PBM E-score": -0.022}, {"sequence": "CATCCTGC", "PBM E-score": -0.183}, {"sequence": "GCGATTAC", "PBM E-score": 0.0139}, {"sequence": "GACCGCGA", "PBM E-score": 0.193}, {"sequence": "CCACTCAC", "PBM E-score": -0.098}, {"sequence": "GCGTGAGA", "PBM E-score": -0.0361}, {"sequence": "ATTTTTGC", "PBM E-score": 0.00321}, {"sequence": "AACCTTTC", "PBM E-score": -0.0569}, {"sequence": "ATTGTCGG", "PBM E-score": 0.306}, {"sequence": "CGGAAAAG", "PBM E-score": 0.373}, {"sequence": "AACCAGCA", "PBM E-score": -0.144}, {"sequence": "CTAGAGCC", "PBM E-score": -0.118}, {"sequence": "CCACAACC", "PBM E-score": 0.00674}, {"sequence": "AAGAGAGT", "PBM E-score": -0.0766}, {"sequence": "AGCACGAG", "PBM E-score": -0.0826}, {"sequence": "GGTATCAA", "PBM E-score": 0.054}, {"sequence": "CGAGAACG", "PBM E-score": 0.232}, {"sequence": "AGGGATCC", "PBM E-score": 0.183}, {"sequence": "ATGTCGCG", "PBM E-score": 0.101}, {"sequence": "GCGAGACC", "PBM E-score": -0.173}, {"sequence": "ACTTGTTC", "PBM E-score": -0.121}, {"sequence": "GCTGACCA", "PBM E-score": -0.0869}, {"sequence": "GAAGAACC", "PBM E-score": 0.0353}, {"sequence": "AATGAATT", "PBM E-score": -0.0288}, {"sequence": "CCTCCCGC", "PBM E-score": 0.0967}, {"sequence": "ACAGGACC", "PBM E-score": -0.0185}, {"sequence": "AGCATCCC", "PBM E-score": -0.0289}, {"sequence": "CACATGGG", "PBM E-score": -0.0634}, {"sequence": "AGACCGAT", "PBM E-score": 0.163}, {"sequence": "GTTGGGGA", "PBM E-score": 0.0498}, {"sequence": "AGTGGGTA", "PBM E-score": 0.11}, {"sequence": "CACGCAGA", "PBM E-score": -0.109}, {"sequence": "TATGGGAA", "PBM E-score": -0.171}, {"sequence": "AAAAACGA", "PBM E-score": -0.117}, {"sequence": "ACTACAAC", "PBM E-score": 0.021}, {"sequence": "TCTCCGCA", "PBM E-score": 0.407}, {"sequence": "CAGGTACC", "PBM E-score": -0.134}, {"sequence": "AGTCTGCG", "PBM E-score": -0.278}, {"sequence": "GAAGCGTC", "PBM E-score": -0.17}, {"sequence": "GAACGGGC", "PBM E-score": -0.0384}, {"sequence": "CCTCCTCG", "PBM E-score": -0.206}, {"sequence": "CACGGCTC", "PBM E-score": -0.00207}, {"sequence": "GCGTACAA", "PBM E-score": -0.249}, {"sequence": "ACTATGCG", "PBM E-score": 0.0962}, {"sequence": "CTCGCATC", "PBM E-score": -0.0684}, {"sequence": "AGCATGAA", "PBM E-score": -0.0789}, {"sequence": "ATGACCTC", "PBM E-score": -0.154}, {"sequence": "AATGGTCT", "PBM E-score": 0.0209}, {"sequence": "ACTCAGCG", "PBM E-score": -0.0317}, {"sequence": "GGGCAAGA", "PBM E-score": 0.138}, {"sequence": "GATTAGAA", "PBM E-score": -0.0156}, {"sequence": "CTTCAGAC", "PBM E-score": -0.158}, {"sequence": "CTATGTTA", "PBM E-score": 0.107}, {"sequence": "CCGTTTAC", "PBM E-score": 0.163}, {"sequence": "CATGTACA", "PBM E-score": -0.261}, {"sequence": "AGGGGAAA", "PBM E-score": -0.0865}, {"sequence": "AACTGCGC", "PBM E-score": 0.111}, {"sequence": "CCGTGACG", "PBM E-score": 0.0727}, {"sequence": "AATTGGCG", "PBM E-score": 0.0426}, {"sequence": "GTAGCCAC", "PBM E-score": -0.28}, {"sequence": "GATGATGA", "PBM E-score": -0.00455}, {"sequence": "AAGATTTG", "PBM E-score": -0.163}, {"sequence": "CAACGTCC", "PBM E-score": 0.185}, {"sequence": "AAGATTGT", "PBM E-score": -0.0718}, {"sequence": "ATTACTCC", "PBM E-score": 0.239}, {"sequence": "GAGTAGGA", "PBM E-score": 0.0925}, {"sequence": "CAACTAGA", "PBM E-score": -0.179}, {"sequence": "AAGATATC", "PBM E-score": -0.0284}, {"sequence": "CTATTTGC", "PBM E-score": -0.0712}, {"sequence": "CCTCGTTA", "PBM E-score": -0.324}, {"sequence": "GCGGCTTA", "PBM E-score": 0.107}, {"sequence": "GTCAAATA", "PBM E-score": -0.129}, {"sequence": "CTTATATA", "PBM E-score": -0.0613}, {"sequence": "CGCACTTC", "PBM E-score": 0.141}, {"sequence": "AAATTACA", "PBM E-score": 0.0234}, {"sequence": "GCCGAGAA", "PBM E-score": 0.259}, {"sequence": "AGTTTCTA", "PBM E-score": -0.214}, {"sequence": "CTTTCAGC", "PBM E-score": 0.157}, {"sequence": "TCGATTAA", "PBM E-score": 0.0061}, {"sequence": "AGTGCGCC", "PBM E-score": 0.0447}, {"sequence": "CGGCTATA", "PBM E-score": 0.172}, {"sequence": "AACCCCTT", "PBM E-score": -0.071}, {"sequence": "CTCCAAAA", "PBM E-score": -0.0959}, {"sequence": "CAAGCACC", "PBM E-score": -0.222}, {"sequence": "CTTACCTA", "PBM E-score": -0.193}, {"sequence": "GACTCGAC", "PBM E-score": -0.0577}, {"sequence": "ACCACACG", "PBM E-score": -0.17}, {"sequence": "GCCTGGTA", "PBM E-score": -0.305}, {"sequence": "CATGGAGG", "PBM E-score": -0.29}, {"sequence": "CTAGCGCC", "PBM E-score": -0.0798}, {"sequence": "GGTCTAAC", "PBM E-score": -0.0157}, {"sequence": "AAGTGTGC", "PBM E-score": -0.0194}, {"sequence": "CACTACCA", "PBM E-score": 0.00647}, {"sequence": "GCTGTTAC", "PBM E-score": -0.0654}, {"sequence": "AACCAACT", "PBM E-score": -0.108}, {"sequence": "GTAGAGAC", "PBM E-score": -0.216}, {"sequence": "ATTTGGTC", "PBM E-score": -0.00782}, {"sequence": "ACATAACC", "PBM E-score": 0.124}, {"sequence": "ACGCATCC", "PBM E-score": -0.0716}, {"sequence": "CCTTTTGA", "PBM E-score": -0.133}, {"sequence": "CAGCGTGG", "PBM E-score": -0.141}, {"sequence": "CCGATCTC", "PBM E-score": 0.282}, {"sequence": "CGGTACAG", "PBM E-score": 0.129}, {"sequence": "CGGTTAAG", "PBM E-score": 0.0963}, {"sequence": "AAGGACCT", "PBM E-score": -0.144}, {"sequence": "AGTGAATC", "PBM E-score": -0.0302}, {"sequence": "GCAAGAGC", "PBM E-score": -0.135}, {"sequence": "GAATCCCC", "PBM E-score": 0.145}, {"sequence": "CACATCCG", "PBM E-score": 0.309}, {"sequence": "GCCAGTCA", "PBM E-score": -0.235}, {"sequence": "ACTCAGTC", "PBM E-score": -0.221}, {"sequence": "CGATGACG", "PBM E-score": 0.0955}, {"sequence": "AGCATAAT", "PBM E-score": 0.00492}, {"sequence": "GCCCTCTA", "PBM E-score": -0.208}, {"sequence": "AAAACATG", "PBM E-score": -0.0175}, {"sequence": "CAGTTACA", "PBM E-score": -0.0913}, {"sequence": "ACGCTCAG", "PBM E-score": -0.197}, {"sequence": "GCAGGGCA", "PBM E-score": -0.11}, {"sequence": "CTCTCGAC", "PBM E-score": -0.219}, {"sequence": "GCGATTCA", "PBM E-score": -0.106}, {"sequence": "AGCTGATC", "PBM E-score": -0.0271}, {"sequence": "CGACGGGA", "PBM E-score": 0.265}, {"sequence": "AGTAGTAA", "PBM E-score": -0.124}, {"sequence": "AGATATCG", "PBM E-score": -0.168}, {"sequence": "AGGGACCG", "PBM E-score": -0.14}, {"sequence": "CACTGTGA", "PBM E-score": -0.267}]}]}
